The chains are these.
B1: 1200-1210 (bispecific antibody)
heavy: EVQLLESGGGLVQPGGSLRLSCAASGFTFSSYAMSWVRQAPGKGLEWVSGISGGGGGTYYADSVKGRFTISRDNSKNTLYLQMNSLRAEDTAVYYCARDVAYFDYWGQGTLVTVSS[no letters for human IgG1 constant region]GGGGSGGGGS[no letters for about 100 residues]YYGGYYSAWMDYWGQGTLVTVSSGGGGSGGGGSGGGGSDIQMTQSPSSLSASVGDRVTITCRASQSISSYLNWYQQKPGKAPKLLIYAASSLQSGVPSRFSGSGSGTDFTLTISSLQPEDFATYYCQQTYGYLHTFGQGTKLEIK
light: DIQMTQSPSSLSASVGDRVTITCRASQSISSYLNWYQQKPGKAPKLLIYAASSLQSGVPSRFSGSGSGTDFTLTISSLQPEDFATYYCQQYYIPHTFGQGTKLEIKRTVAAPSVFIFPPSDEQLKSGTASVVCLLNNFYPREAKVQWKVDNALQSGNSQESVTEQDSKDSTYSLSSTLTLSKADYEKHKVYACEVTHQGLSSPVTKSFNRGEC
notes: Morrison format IgG-scFv
B2: 1620-1210 (bispecific antibody)
heavy: EVQLLESGGGLVQPGGSLRLSCAASGFTFSGYYMYWVRQAPGKGLEWVSGISSSGSYTYYADSVKGRFTISRDNSKNTLYLQMNSLRAEDTAVYYCARSVGPYFDYWGQGTLVTVSS[no letters for human IgG1 constant region]GGGGSGGGGS[no letters for about 100 residues]YYGGYYSAWMDYWGQGTLVTVSSGGGGSGGGGSGGGGSDIQMTQSPSSLSASVGDRVTITCRASQSISSYLNWYQQKPGKAPKLLIYAASSLQSGVPSRFSGSGSGTDFTLTISSLQPEDFATYYCQQTYGYLHTFGQGTKLEIK
light: B1 light with Y91G, Y92V, I93G, H95Y
notes: Morrison format IgG-scFv
B3: 1214-1210 (bispecific antibody)
heavy: EVQLLESGGGLVQPGGSLRLSCAASGFTFSSYAMSWVRQAPGKGLEWVSSIGSGGGYTGYADSVKGRFTISRDNSKNTLYLQMNSLRAEDTAVYYCARVGHPFDYWGQGTLVTVSS[no letters for human IgG1 constant region]GGGGSGGGGS[no letters for about 100 residues]YYGGYYSAWMDYWGQGTLVTVSSGGGGSGGGGSGGGGSDIQMTQSPSSLSASVGDRVTITCRASQSISSYLNWYQQKPGKAPKLLIYAASSLQSGVPSRFSGSGSGTDFTLTISSLQPEDFATYYCQQTYGYLHTFGQGTKLEIK
light: B1 light with Y91D, Y92A, I93Y
notes: Morrison format IgG-scFv
B4: 1206-1202 (bispecific antibody)
heavy: EVQLLESGGGLVQPGGSLRLSCAASGFTFSGSSMSWVRQAPGKGLEWVSSIYYSGSGTYYADSVKGRFTISRDNSKNTLYLQMNSLRAEDTAVYYCARYGRNVHPYNLDYWGQGTLVTVSS[no letters for human IgG1 constant region]GGGGSGGGGSEVQLLESGGGLVQPGGSLRLSCAASGFTFYGSSMSWVRQAPGKGLEWVSSIYYGSSGTYYADSVKGRFTISRDNSKNTLYLQMNSLRAEDTAVYYCARSYYGYFDYWGQGTLVTVSSGGGGSGGGGSGGGGSDIQMTQSPSSLSASVGDRVTITCRASQSISSYLNWYQQKPGKAPKLLIYAASSLQSGVPSRFSGSGSGTDFTLTISSLQPEDFATYYCQQYYTVVPFTFGQGTKLEIK
light: DIQMTQSPSSLSASVGDRVTITCRASQSISSYLNWYQQKPGKAPKLLIYAASSLQSGVPSRFSGSGSGTDFTLTISSLQPEDFATYYCQQGYYYLPTFGQGTKLEIKRTVAAPSVFIFPPSDEQLKSGTASVVCLLNNFYPREAKVQWKVDNALQSGNSQESVTEQDSKDSTYSLSSTLTLSKADYEKHKVYACEVTHQGLSSPVTKSFNRGEC
notes: Morrison format IgG-scFv
B5: 1210-1202 (bispecific antibody)
heavy: [no letters for about 100 residues]YYGGYYSAWMDYWGQGTLVTVSS[no letters for human IgG1 constant region]GGGGSGGGGSEVQLLESGGGLVQPGGSLRLSCAASGFTFYGSSMSWVRQAPGKGLEWVSSIYYGSSGTYYADSVKGRFTISRDNSKNTLYLQMNSLRAEDTAVYYCARSYYGYFDYWGQGTLVTVSSGGGGSGGGGSGGGGSDIQMTQSPSSLSASVGDRVTITCRASQSISSYLNWYQQKPGKAPKLLIYAASSLQSGVPSRFSGSGSGTDFTLTISSLQPEDFATYYCQQYYTVVPFTFGQGTKLEIK
light: B4 light with G91T, Y93G, P96H
notes: Morrison format IgG-scFv
B6: 1210-1204 (bispecific antibody)
heavy: [no letters for about 100 residues]YYGGYYSAWMDYWGQGTLVTVSS[no letters for human IgG1 constant region]GGGGSGGGGSEVQLLESGGGLVQPGGSLRLSCAASGFTFSSYYMGWVRQAPGKGLEWVSGIGSYYGYTGYADSVKGRFTISRDNSKNTLYLQMNSLRAEDTAVYYCARAYYDYNYYYAYFDYWGQGTLVTVSSGGGGSGGGGSGGGGSDIQMTQSPSSLSASVGDRVTITCRASQSISSYLNWYQQKPGKAPKLLIYAASSLQSGVPSRFSGSGSGTDFTLTISSLQPEDFATYYCQQSVPHYPFTFGQGTKLEIK
light: B4 light with G91T, Y93G, P96H
notes: Morrison format IgG-scFv
B7: 1206-1204 (bispecific antibody)
heavy: EVQLLESGGGLVQPGGSLRLSCAASGFTFSGSSMSWVRQAPGKGLEWVSSIYYSGSGTYYADSVKGRFTISRDNSKNTLYLQMNSLRAEDTAVYYCARYGRNVHPYNLDYWGQGTLVTVSS[no letters for human IgG1 constant region]GGGGSGGGGSEVQLLESGGGLVQPGGSLRLSCAASGFTFSSYYMGWVRQAPGKGLEWVSGIGSYYGYTGYADSVKGRFTISRDNSKNTLYLQMNSLRAEDTAVYYCARAYYDYNYYYAYFDYWGQGTLVTVSSGGGGSGGGGSGGGGSDIQMTQSPSSLSASVGDRVTITCRASQSISSYLNWYQQKPGKAPKLLIYAASSLQSGVPSRFSGSGSGTDFTLTISSLQPEDFATYYCQQSVPHYPFTFGQGTKLEIK
light: B4 light
notes: Morrison format IgG-scFv
B8: 1202-1206 (bispecific antibody)
heavy: EVQLLESGGGLVQPGGSLRLSCAASGFTFYGSSMSWVRQAPGKGLEWVSSIYYGSSGTYYADSVKGRFTISRDNSKNTLYLQMNSLRAEDTAVYYCARSYYGYFDYWGQGTLVTVSS[no letters for human IgG1 constant region]GGGGSGGGGSEVQLLESGGGLVQPGGSLRLSCAASGFTFSGSSMSWVRQAPGKGLEWVSSIYYSGSGTYYADSVKGRFTISRDNSKNTLYLQMNSLRAEDTAVYYCARYGRNVHPYNLDYWGQGTLVTVSSGGGGSGGGGSGGGGSDIQMTQSPSSLSASVGDRVTITCRASQSISSYLNWYQQKPGKAPKLLIYAASSLQSGVPSRFSGSGSGTDFTLTISSLQPEDFATYYCQQGYYYLPTFGQGTKLEIK
light: DIQMTQSPSSLSASVGDRVTITCRASQSISSYLNWYQQKPGKAPKLLIYAASSLQSGVPSRFSGSGSGTDFTLTISSLQPEDFATYYCQQYYTVVPFTFGQGTKLEIKRTVAAPSVFIFPPSDEQLKSGTASVVCLLNNFYPREAKVQWKVDNALQSGNSQESVTEQDSKDSTYSLSSTLTLSKADYEKHKVYACEVTHQGLSSPVTKSFNRGEC
notes: Morrison format IgG-scFv
B9: 1204-1206 (bispecific antibody)
heavy: EVQLLESGGGLVQPGGSLRLSCAASGFTFSSYYMGWVRQAPGKGLEWVSGIGSYYGYTGYADSVKGRFTISRDNSKNTLYLQMNSLRAEDTAVYYCARAYYDYNYYYAYFDYWGQGTLVTVSS[no letters for human IgG1 constant region]GGGGSGGGGSEVQLLESGGGLVQPGGSLRLSCAASGFTFSGSSMSWVRQAPGKGLEWVSSIYYSGSGTYYADSVKGRFTISRDNSKNTLYLQMNSLRAEDTAVYYCARYGRNVHPYNLDYWGQGTLVTVSSGGGGSGGGGSGGGGSDIQMTQSPSSLSASVGDRVTITCRASQSISSYLNWYQQKPGKAPKLLIYAASSLQSGVPSRFSGSGSGTDFTLTISSLQPEDFATYYCQQGYYYLPTFGQGTKLEIK
light: B8 light with Y91S, Y92V, T93P, V94H, V95Y
notes: Morrison format IgG-scFv
B10: 1204-1210 (bispecific antibody)
heavy: EVQLLESGGGLVQPGGSLRLSCAASGFTFSSYYMGWVRQAPGKGLEWVSGIGSYYGYTGYADSVKGRFTISRDNSKNTLYLQMNSLRAEDTAVYYCARAYYDYNYYYAYFDYWGQGTLVTVSS[no letters for human IgG1 constant region]GGGGSGGGGS[no letters for about 100 residues]YYGGYYSAWMDYWGQGTLVTVSSGGGGSGGGGSGGGGSDIQMTQSPSSLSASVGDRVTITCRASQSISSYLNWYQQKPGKAPKLLIYAASSLQSGVPSRFSGSGSGTDFTLTISSLQPEDFATYYCQQTYGYLHTFGQGTKLEIK
light: B8 light with Y91S, Y92V, T93P, V94H, V95Y
notes: Morrison format IgG-scFv
B11: 1202-1210 (bispecific antibody)
heavy: EVQLLESGGGLVQPGGSLRLSCAASGFTFYGSSMSWVRQAPGKGLEWVSSIYYGSSGTYYADSVKGRFTISRDNSKNTLYLQMNSLRAEDTAVYYCARSYYGYFDYWGQGTLVTVSS[no letters for human IgG1 constant region]GGGGSGGGGS[no letters for about 100 residues]YYGGYYSAWMDYWGQGTLVTVSSGGGGSGGGGSGGGGSDIQMTQSPSSLSASVGDRVTITCRASQSISSYLNWYQQKPGKAPKLLIYAASSLQSGVPSRFSGSGSGTDFTLTISSLQPEDFATYYCQQTYGYLHTFGQGTKLEIK
light: B8 light
notes: Morrison format IgG-scFv

Numbering of substitutions follows the chain as printed.

This test concerns the target T1, 5T4-Fc (human, UniProt Q13641 32-355, limits assumed).
T1 construct: obtained from Peter L. Stern, University of Manchester; also called h5T4-Fc; recombinant 5T4
T1 sequence (looked up): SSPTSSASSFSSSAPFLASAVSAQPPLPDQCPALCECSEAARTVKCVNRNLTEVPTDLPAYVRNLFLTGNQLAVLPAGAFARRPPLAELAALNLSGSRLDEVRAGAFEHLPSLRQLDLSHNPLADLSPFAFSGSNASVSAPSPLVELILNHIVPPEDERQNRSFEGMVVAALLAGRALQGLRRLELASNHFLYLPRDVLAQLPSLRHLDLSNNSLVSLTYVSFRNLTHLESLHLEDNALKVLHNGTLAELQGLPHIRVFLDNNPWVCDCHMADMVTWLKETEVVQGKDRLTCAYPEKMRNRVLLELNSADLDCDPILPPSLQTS
As to the kind of experiment: dual ELISA: coated 5T4-Fc, detection with CD137-bio. Background: In an ELISA, binding on a coated surface is turned into a signal by an enzyme label.
As usually defined, the EC50 is the concentration giving half of the maximal effect. Higher therefore signals a need for much substance. On to B1, for which the EC50 worked out at 3730 pM.
The molecule B2 came in with an EC50 of 1740 pM.
Molecule B3 had an EC50 of 190 pM.
The figure for B4 is 280 pM.
In the case of B5 it was 280 pM; in that of B6, 280 pM.
The figure for B7 is 660 pM; for B8 it is 610 pM.
Take B9: a half-maximal effect (EC50) was put at 540 pM.
In the case of B10 it was 730 pM.
The figure for B11 is 1200 pM.

Source of the values: US20190169308A1 (ALLIGATOR BIOSCIENCE, published 2019).
